From PubChem BioAssay AID488969 (Vanderbilt High Throughput Screening Facility, 2010) come the findings set out here.

Over roughly 110,000 compounds, “z-score” has its median near -0.1; the highest 2% begin near 2. This is one part of the list.

This experiment addresses Metabotropic glutamate receptor 8 (Rattus norvegicus) (UniProt P70579). Description: rat mGluR8 modulators via GIRK flux, primary screen, cell-based, thallium flux, HTS (AID 488969). As to conditions: HEK293 rat mGluR8, GIRK (G protein-gated inwardly rectifying potassium channel) thallium flux, FluoZin2; at 10 µM; stronger effect = higher value; submaximal glutamate (EC20) added with thallium.
Sequence of UniProt P70579 (P70579 whole entry, looked up): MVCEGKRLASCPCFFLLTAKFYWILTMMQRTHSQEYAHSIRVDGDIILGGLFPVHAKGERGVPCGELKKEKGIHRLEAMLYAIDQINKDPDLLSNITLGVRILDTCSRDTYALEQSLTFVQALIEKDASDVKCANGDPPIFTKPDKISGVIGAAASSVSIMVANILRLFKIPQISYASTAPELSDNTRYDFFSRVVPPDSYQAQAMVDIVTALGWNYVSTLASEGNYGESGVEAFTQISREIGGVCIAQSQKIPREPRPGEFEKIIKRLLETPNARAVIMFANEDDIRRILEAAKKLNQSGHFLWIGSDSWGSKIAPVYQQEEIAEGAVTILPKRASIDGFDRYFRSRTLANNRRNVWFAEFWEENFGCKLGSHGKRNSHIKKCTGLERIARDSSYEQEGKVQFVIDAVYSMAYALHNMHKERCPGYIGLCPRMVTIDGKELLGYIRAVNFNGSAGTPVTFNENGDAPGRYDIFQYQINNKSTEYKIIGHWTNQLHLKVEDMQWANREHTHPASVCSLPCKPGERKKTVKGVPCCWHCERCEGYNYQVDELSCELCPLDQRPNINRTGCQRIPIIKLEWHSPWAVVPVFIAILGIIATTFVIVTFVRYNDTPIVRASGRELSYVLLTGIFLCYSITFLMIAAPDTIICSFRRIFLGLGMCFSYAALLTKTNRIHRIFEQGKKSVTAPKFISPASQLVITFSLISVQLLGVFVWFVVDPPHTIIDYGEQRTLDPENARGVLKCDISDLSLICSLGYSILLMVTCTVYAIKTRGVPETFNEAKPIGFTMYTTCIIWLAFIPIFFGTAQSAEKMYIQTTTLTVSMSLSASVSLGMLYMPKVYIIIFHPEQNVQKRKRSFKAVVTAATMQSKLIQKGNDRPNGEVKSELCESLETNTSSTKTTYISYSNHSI
In turn, `COc1cccc(C2=NC(C)(C)NC(c3ccccc3O)C2)c1` (stereo not given) yielded a z-score of 0.107. `CCOC(=O)N1CCN(C(=O)c2oc3ccc(S(=O)(=O)N4CC(C)CC(C)C4)cc3c2C)CC1` (stereo not given) yielded a z-score of -2.63. To `CC(=O)Nc1ccc(NC(=O)CCCCCN2C(=O)c3ccccc3C2=O)cc1` belongs -0.643. To `OC(COC(c1ccccc1)c1ccccc1)CN1CCCCC1` (stereo not given) belongs 0.783; to `C=CCn1c(C(C)NC(=O)c2ccccc2)n[nH]c1=S` (stereo not given), -0.78; to `COC(=O)/C(=C\Nc1ccc(Cl)cc1Cl)NC(=O)c1ccc(Cl)cc1Cl`, -0.0181. To `COc1ccc(CCN2C(=O)c3[nH]nc(-c4ccccc4O)c3C2c2ccccc2)cc1OC` (stereo not given) belongs -0.0134. As for `O=C(CN1CCN(c2ccccc2O)CC1)Nc1ccc2c(c1)CCC2`, the z-score is -0.114. `COc1ccc(NC(=O)C(=O)N/N=C/c2cc(C)n(-c3cccc(Cl)c3Cl)c2C)c(OC)c1`: the z-score was -0.134.

`O=C(COC(=O)c1ccc2ncsc2c1)Nc1ncc(Cl)cc1Cl` yielded a z-score of 0.0132.

In the case of `O=C(CSc1ccc2c(c1)OCCO2)Nc1ccc2c(c1)OCO2`, the z-score was 0.334. In turn, `CCOC(=O)c1sc2nc[nH]c(=O)c2c1C` gave a z-score of -0.318. As for `O=c1/c(=C/c2ccccn2)sc2n1CN(c1ccccc1)CN=2`, the z-score was -0.675. To `COc1ccc2c(c1)-c1ccccc1S(=O)(=O)N2C(C)=O` belongs -0.33; to `Cc1cccc(Oc2ccc(C(=O)NC3CCSC3=O)cn2)c1C` (stereo not given), 0.251. For `CCOC(=O)CC1(C)NC(=O)c2c(C)sc(C(=O)OCC)c2N1` (stereo not given), the z-score was -0.0827.

On to `Cc1cc(C)nc(NS(=O)(=O)c2ccc(NC(=O)C3(c4ccc([N+](=O)[O-])cc4)CCCC3)cc2)n1`, for which the z-score was -0.0865.

The compound `O=C(c1ccco1)N1CCN(C(=O)c2oc(=O)c3ccccc3c2-c2ccccc2)CC1` yielded a z-score of 0.834. The value for `CCOC(=O)N1CCN(C(=O)CNC(=O)c2nn(-c3ccc(OC)cc3)c(=O)c3ccccc23)CC1` was -0.19. The value for `Cc1ccc(CN2CCNC(=O)C2CC(=O)O)o1` (stereo not given) was -0.0906; that for `CCOCCCN(Cc1ccco1)C(=O)c1cc2c(=O)[nH]c3ccc(C)cc3c2s1` was -0.548; that for `CCC(C)c1ccc(NC(=S)Nc2ccc(OC)cc2)cc1` (stereo not given) was 0.436.

As for `O=C(Cn1cnc2c(cnn2-c2ccc(F)cc2)c1=O)NCC1CCCO1` (stereo not given), the z-score was found to be 0.105. To `COCCn1c(-c2ccc(OC)c(OC)c2)nc2ccccc21` belongs 1.11; to `c1cnc(NCCNc2ncccn2)nc1`, -0.186; to `O=S(=O)(c1ccccc1)n1ccc(-c2cnc(-c3ccccc3)s2)n1`, -0.268. To `COCCNC(=O)Cn1c(=O)n(CCCCCC(=O)Nc2ccccc2)c(=O)c2sccc21` belongs -0.519.

In turn, `Cc1ccc(Nc2nnc(SCC3CCCCO3)s2)cc1` (stereo not given) came in with a z-score of 1.64.

In turn, `N/C(=N\OC(=O)c1ccc(F)cc1)c1ccccc1` displayed a z-score of -0.273. The value for `CC1CCc2cc(F)ccc2N1C(=O)CSc1nnc2c(n1)[nH]c1ccccc12` (stereo not given) was -0.526.
